Experimental data: the supplement of paper PMC7826260
The other results are listed elsewhere or left out. The data describe in vitro nicking of single-stranded DNA by Rep domains at 3 µM enzyme and 37 °C for 1 h; the strands have 90 letters, of which the middle is given. Uncut reads are compared with the no-enzyme pool on a log2 scale; strong cutting gives strongly negative numbers. There is no active / inactive call. Counts are relative to all reads; where an enzyme cuts many sequences, the uncut ones exceed 0.

What was measured:
Test in all cases: uncleaved DNA left, log2 of reads against the no-enzyme library (log2 ratio); higher = less cleavage (more negative = more Rep cleavage of the k-mer); sequences stand for … in CTCGTCCG…ACCGGAGA
[1] = test system: T1, Rep nickase domain of Muscovy duck circovirus
T1 sequence (protein, residues 1-111, tag omitted): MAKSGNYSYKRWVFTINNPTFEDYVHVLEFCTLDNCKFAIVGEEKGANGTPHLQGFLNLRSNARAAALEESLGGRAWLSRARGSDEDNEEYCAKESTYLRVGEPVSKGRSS
Description: (§1)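 A pool of 90-nt single-stranded DNAs with seven random bases just before the constant AC of the nick site (name = the seven bases) was cut by 3 µM recombinant His6-SUMO-tagged Rep nickase domain (300 nM DNA, 50 mM HEPES pH 8.0, 50 mM NaCl, 1 mM MnCl2, 1 h, 37 °C, three replicates). Uncut DNA was amplified and sequenced.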

[2] = test system: T2, Rep nickase domain of banana bunchy top virus
T2 sequence (protein, residues 1-94, tag omitted): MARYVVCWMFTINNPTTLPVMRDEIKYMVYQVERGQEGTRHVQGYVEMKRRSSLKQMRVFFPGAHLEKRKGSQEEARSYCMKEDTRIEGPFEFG
Description: as §1

[3] = test system: T3, Rep nickase domain of cabbage leaf curl virus
T3 sequence (protein, residues 1-116, tag omitted): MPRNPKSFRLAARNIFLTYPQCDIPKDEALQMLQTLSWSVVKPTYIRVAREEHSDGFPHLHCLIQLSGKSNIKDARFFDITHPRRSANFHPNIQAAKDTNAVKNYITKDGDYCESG
Description: as §1

[4] = test system: T4, Rep nickase domain of chickpea chlorotic dwarf virus
T4 sequence (protein, residues 1-124, tag omitted): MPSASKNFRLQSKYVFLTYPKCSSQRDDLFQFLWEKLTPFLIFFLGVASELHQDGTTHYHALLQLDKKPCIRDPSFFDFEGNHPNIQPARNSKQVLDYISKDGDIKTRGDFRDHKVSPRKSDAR
Description: as §1

[5] = test system: T5, Rep nickase domain of faba bean necrotic yellows virus
T5 sequence (protein, residues 1-98, tag omitted): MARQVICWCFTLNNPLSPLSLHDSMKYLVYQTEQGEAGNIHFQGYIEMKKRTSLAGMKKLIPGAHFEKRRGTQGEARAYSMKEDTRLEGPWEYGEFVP
Description: as §1

[6] = test system: T6, Rep nickase domain of maize striate mosaic virus
T6 sequence (protein, residues 1-117, tag omitted): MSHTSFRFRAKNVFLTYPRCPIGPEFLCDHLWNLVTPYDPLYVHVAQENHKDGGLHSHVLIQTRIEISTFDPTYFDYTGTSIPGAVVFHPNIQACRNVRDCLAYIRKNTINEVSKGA
Description: as §1

[7] = test system: T7, Rep nickase domain of porcine circovirus 2
T7 sequence (protein, residues 2-116, tag omitted): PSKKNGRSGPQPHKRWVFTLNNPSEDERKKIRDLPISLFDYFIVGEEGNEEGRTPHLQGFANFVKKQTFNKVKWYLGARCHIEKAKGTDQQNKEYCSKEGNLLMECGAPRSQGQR
Description: as §1

[8] = test system: T8, Rep nickase domain of tomato yellow leaf curl virus
T8 sequence (protein, residues 1-136, tag omitted): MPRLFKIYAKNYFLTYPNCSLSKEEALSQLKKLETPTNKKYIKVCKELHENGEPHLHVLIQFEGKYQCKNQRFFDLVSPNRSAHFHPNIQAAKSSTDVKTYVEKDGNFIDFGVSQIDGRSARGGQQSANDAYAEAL
Description: as §1

[9] = test system: T9, Rep nickase domain of wheat dwarf virus
T9 sequence (protein, residues 1-137, tag omitted): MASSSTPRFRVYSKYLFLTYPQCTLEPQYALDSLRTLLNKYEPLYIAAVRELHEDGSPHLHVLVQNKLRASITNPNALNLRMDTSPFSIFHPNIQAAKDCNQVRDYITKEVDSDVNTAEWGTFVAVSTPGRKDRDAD
Description: as §1

| Sequence | uncleaved DNA left (log2) [1] | uncleaved DNA left (log2) [2] | uncleaved DNA left (log2) [3] | uncleaved DNA left (log2) [4] | uncleaved DNA left (log2) [5] | uncleaved DNA left (log2) [6] | uncleaved DNA left (log2) [7] | uncleaved DNA left (log2) [8] | uncleaved DNA left (log2) [9] |
| --- | --- | --- | --- | --- | --- | --- | --- | --- | --- |
| TGGTTCC | -0.0833 | 0.0557 | 0.317 | 0.724 | -0.0483 | 1.31 | -0.0787 | 0.101 | 0.112 |
| AACCTTC | -0.0486 | -0.0304 | -0.068 | -0.671 | -0.0867 | -0.673 | -0.322 | -0.0851 | -0.0597 |
| TTCCTGA | 0.0646 | 0.0345 | 0.244 | 0.384 | -0.0698 | 0.699 | -0.00313 | 0.00438 | -0.0238 |
| AACTCGG | 0.112 | 0.039 | 0.536 | 1.39 | 0.0721 | 1.43 | 0.104 | 0.0424 | 0.146 |
| GCGATTC | -0.142 | -0.0541 | 0.00678 | 0.377 | 0.0359 | 0.203 | -0.0426 | 0.00245 | -0.052 |
| GCAATTA | -0.0277 | 0.0133 | 0.0761 | -0.51 | 0.16 | -0.116 | -0.129 | 0.0214 | -0.0264 |
| CTGCACC | -0.127 | -0.156 | -0.104 | 0.129 | -0.0246 | -0.109 | 0.0256 | -0.146 | -0.0642 |
| CGTGAAG | 0.0343 | -0.119 | -0.809 | -0.314 | 0.111 | -0.951 | 0.115 | 0.00241 | -0.119 |
| TTCAGCG | 0.099 | 0.119 | -0.565 | 0.707 | 0.161 | -0.688 | 0.301 | 0.139 | 0.0824 |
| CCGTGAG | 0.141 | -0.129 | -0.551 | -0.111 | 0.0286 | -0.503 | 0.13 | 0.0699 | -0.168 |
| ACAGCTG | 0.0384 | 0.0359 | 0.252 | 1.08 | 0.139 | 0.88 | 0.213 | 0.0847 | 0.17 |
| TGGATAG | -0.0633 | 0.0474 | -0.0614 | 0.745 | -0.103 | -0.259 | 0.0109 | 0.0127 | 0.0194 |
| GCGTTAG | -0.0499 | -0.115 | -0.146 | 0.162 | 0.0556 | -0.788 | 0.0366 | -0.0807 | -0.0704 |
| CCATTCA | 0.024 | 0.136 | -0.345 | -1.03 | 0.051 | -1.01 | 0.0676 | 0.239 | 0.0793 |
| TGGACCA | -0.00864 | 0.0872 | 0.742 | 1.56 | -0.0349 | 1.92 | 0.0941 | 0.103 | 0.219 |
| CCACGGA | -0.176 | -0.215 | 0.0164 | 0.0983 | -0.141 | -0.268 | 0.0887 | -0.0635 | -0.0149 |
| GGACACT | -0.00536 | -0.0116 | 0.764 | 1.76 | -0.0445 | 2.09 | -0.00214 | -0.0245 | 0.0759 |
| CCCGTAA | 0.041 | 0.0779 | -0.00187 | -0.214 | 0.0459 | -0.485 | 0.0501 | 0.13 | -0.0754 |
| TCGATAC | 0.0767 | -0.0149 | 0.0967 | -0.343 | 0.0816 | -0.478 | 0.207 | 0.0199 | 0.017 |
| AAGCTTG | 0.0852 | 0.172 | 0.398 | 1.41 | 0.105 | 1.49 | 0.283 | -0.0587 | 0.189 |
| ACGGGGC | 0.0128 | -0.0842 | 0.518 | 0.759 | -0.115 | 0.957 | 0.0944 | -0.157 | -0.0158 |
| TCCATGA | 0.0382 | -0.0421 | -0.0882 | -0.066 | -0.00343 | -0.88 | 0.0494 | 0.0248 | -0.0462 |
| CTAGTGA | 0.0199 | 0.0425 | -0.306 | -0.31 | 0.192 | -0.837 | 0.195 | -0.024 | -0.0933 |
| GACCTGT | 0.0978 | 0.134 | 0.246 | 0.384 | 0.00847 | 0.889 | 0.0892 | 0.041 | -0.0576 |
| GTTGAGG | 0.15 | 0.189 | 0.604 | 1.29 | 0.0932 | 1.34 | 0.192 | -0.0182 | 0.121 |
| AGTCCAC | -0.232 | -0.0469 | 0.098 | 0.09 | -0.15 | -0.0468 | -0.0638 | -0.0301 | 0.0534 |
| CGTTACC | -0.0408 | 0.0368 | -0.043 | -1.48 | -0.0135 | -0.272 | -1.02 | 0.0162 | -0.0397 |
| TTTTGTA | -0.434 | -0.0525 | -0.17 | -1.2 | 0.0656 | -0.613 | -0.392 | 0.0933 | -0.105 |
| CAAGCCA | 0.0379 | 0.104 | -0.033 | -1.43 | -0.0196 | -0.187 | 0.132 | 0.00271 | 0.023 |
| CTATAGT | -3.27 | -0.0691 | -1.96 | -1.65 | 0.014 | -1.34 | -3.3 | 0.0952 | -0.297 |
